Some of the results follow. At the low end of the ranking, values are background and their order means little. Measured with an extract: partners may take part in the binding.
Target: T1, HNF4alpha8 (COS-7 nuclear extract) (UniProt P41235-5)
T1 sequence: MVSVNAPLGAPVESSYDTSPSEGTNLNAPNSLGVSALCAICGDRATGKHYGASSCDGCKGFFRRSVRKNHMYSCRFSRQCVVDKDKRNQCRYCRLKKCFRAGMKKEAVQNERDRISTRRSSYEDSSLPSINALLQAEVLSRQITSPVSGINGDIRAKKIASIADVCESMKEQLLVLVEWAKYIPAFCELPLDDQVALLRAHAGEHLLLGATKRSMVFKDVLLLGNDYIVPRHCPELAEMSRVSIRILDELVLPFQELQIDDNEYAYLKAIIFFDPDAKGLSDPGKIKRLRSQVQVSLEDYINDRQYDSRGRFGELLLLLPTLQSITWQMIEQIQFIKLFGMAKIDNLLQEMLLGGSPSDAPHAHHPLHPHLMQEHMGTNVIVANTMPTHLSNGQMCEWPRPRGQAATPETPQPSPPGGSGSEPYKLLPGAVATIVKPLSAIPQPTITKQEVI
Assay: protein-binding microarray
Settings: COS-7 nuclear extract on double-stranded Agilent 4x180k PBM; binding buffer, salt, pH and temperature not given; high values mean tight binding; double strand, one strand shown; sequences stand for … in …GCCTAGGGAGATTAGAGTATCGGTCGA

Which binding signal (log2 normalized intensity) does the source give for GGAAAAGTAACACAGTAAGAGACTTCACCA here?
The binding signal (log2 normalized intensity) was -1.39.

With TTCAGGAATGCACCCTTTTGACCACACAGC as the sequence, how does the binding signal (log2 normalized intensity) read?
The binding signal (log2 normalized intensity) was 1.77.

Which binding signal (log2 normalized intensity) does the source give for TCTTGCCCTTTGGTCTGGAACACAGAGGGA here?
The binding signal (log2 normalized intensity) was 2.5.

For ATGGGGCCAGATTGAGAAACACATTCTTAG, which binding signal (log2 normalized intensity) is on record?
Its binding signal (log2 normalized intensity) is -0.973.

Which binding signal (log2 normalized intensity) does the source give for TGTTGGGATTAAGGAGAAGGCTCCCAAGGT here?
Its binding signal (log2 normalized intensity) is -1.32.

TTCTTTTTTTCTTTTTTTCCCCCTCACTGA was tested. Which binding signal (log2 normalized intensity) did it give?
Its binding signal (log2 normalized intensity) is 4.2.

With CATCTGCCACTCATAGAACTGTCGCAGAAA as the sequence, how does the binding signal (log2 normalized intensity) read?
The binding signal (log2 normalized intensity) was -1.39.

GGGCTAAACATCAAGACAGGTGAGAGAGCT was tested. Which binding signal (log2 normalized intensity) did it give?
The binding signal (log2 normalized intensity) was -1.27.

How did the binding signal (log2 normalized intensity) turn out when CGCTTGTCTTACGGAAGAATGGAATTCCAG was run?
Its binding signal (log2 normalized intensity) is 1.7.

GATAGGAGATAAGGGGGTCAGTTCAAAAGA was tested. Which binding signal (log2 normalized intensity) did it give?
The binding signal (log2 normalized intensity) was 1.06.

How did the binding signal (log2 normalized intensity) turn out when CTATGGGAAAACAGGCTCAGCAAAGTCAGG was run?
The binding signal (log2 normalized intensity) was -1.34.

With AACACACAAGGCCCACTCCTCCCTCAGGGA as the sequence, how does the binding signal (log2 normalized intensity) read?
The binding signal (log2 normalized intensity) was -1.2.

AATATCGCTTGTCTTACGGAAGAATGGAAT was tested. Which binding signal (log2 normalized intensity) did it give?
Its binding signal (log2 normalized intensity) is 1.09.

How did the binding signal (log2 normalized intensity) turn out when CCAGAATAGCCTCTGCAACTCAGAGACAGG was run?
The binding signal (log2 normalized intensity) was -1.49.

Which binding signal (log2 normalized intensity) does the source give for TGAAAAAGGGTTGTGCAAACTTCAGCAGAA here?
Its binding signal (log2 normalized intensity) is -1.38.

Which binding signal (log2 normalized intensity) does the source give for TTCACCCCATTTTGTCCCTCCCTGCAGCTG here?
Its binding signal (log2 normalized intensity) is 3.98.

With AATAGCTGAACTATTTAAGGCCTTTGAAGT as the sequence, how does the binding signal (log2 normalized intensity) read?
Its binding signal (log2 normalized intensity) is -0.906.

Which binding signal (log2 normalized intensity) does the source give for ACCAGAGACCTTTGTTCACTTGTTTATCTG here?
The binding signal (log2 normalized intensity) was 2.97.

With AGGTCCCCAAGAGCCTTATCACATTACAGG as the sequence, how does the binding signal (log2 normalized intensity) read?
Its binding signal (log2 normalized intensity) is -1.2.

GTCTTTAGAGTAACCATTCTTTCTGAGAAA was tested. Which binding signal (log2 normalized intensity) did it give?
The binding signal (log2 normalized intensity) was -0.925.

How did the binding signal (log2 normalized intensity) turn out when CCTCAAAGGTTAGGGGGATTCTGGCTAAAC was run?
The binding signal (log2 normalized intensity) was -1.19.

GAGAAACAGGGGCTTAAACCTTTAATGATG was tested. Which binding signal (log2 normalized intensity) did it give?
The binding signal (log2 normalized intensity) was -1.17.

With CAAACATACTTAGGATTTTTGTGCCTCTTT as the sequence, how does the binding signal (log2 normalized intensity) read?
Its binding signal (log2 normalized intensity) is 0.873.

For AATCAGTCTGATTGGTTGCAGAAGGCAGCC, which binding signal (log2 normalized intensity) is on record?
Its binding signal (log2 normalized intensity) is -0.0313.

TATCATTAGATTCCATGCAGCAGCATCCAG was tested. Which binding signal (log2 normalized intensity) did it give?
Its binding signal (log2 normalized intensity) is -1.3.

For GATAATATTTTTACCAGGTCAGAGGACTTC, which binding signal (log2 normalized intensity) is on record?
The binding signal (log2 normalized intensity) was 2.51.

CTCTTTTGGATTTTTCCATATCTGTGTGCC was tested. Which binding signal (log2 normalized intensity) did it give?
The binding signal (log2 normalized intensity) was 0.756.

How did the binding signal (log2 normalized intensity) turn out when CAAAGCAGGAGATGTGTGAAGGACACAGAA was run?
The binding signal (log2 normalized intensity) was -1.3.

TGCTTTCAGGTGTGAACCCAGGCAAAGTCC was tested. Which binding signal (log2 normalized intensity) did it give?
Its binding signal (log2 normalized intensity) is 4.24.

Which binding signal (log2 normalized intensity) does the source give for TGGCACTTTGGACTTGAGAAGACATAGTTT here?
Its binding signal (log2 normalized intensity) is 2.88.

With AAGGGGTCAGACCAGACAGCACCTCTCTGA as the sequence, how does the binding signal (log2 normalized intensity) read?
Its binding signal (log2 normalized intensity) is -1.23.

For AAAGAAGAAGATGATATGGTCAGTGTTGAT, which binding signal (log2 normalized intensity) is on record?
The binding signal (log2 normalized intensity) was 1.32.

For ATCTCTAAGCTACTGAAAATGACCTTTGTT, which binding signal (log2 normalized intensity) is on record?
The binding signal (log2 normalized intensity) was 6.73.

With TATCAGAAGAATCTGTATCAGCCTGTGACA as the sequence, how does the binding signal (log2 normalized intensity) read?
Its binding signal (log2 normalized intensity) is -1.34.

CTTACAGTCTTGGATCGGGATGATCAATGT was tested. Which binding signal (log2 normalized intensity) did it give?
The binding signal (log2 normalized intensity) was 1.43.

Which binding signal (log2 normalized intensity) does the source give for GGCAGGAGTCAACAGGCAGAAGAATGGATG here?
The binding signal (log2 normalized intensity) was -1.24.

For CAAGAACAAAAACTGTTTCTATGTGACCTT, which binding signal (log2 normalized intensity) is on record?
Its binding signal (log2 normalized intensity) is 4.5.

For GCTGCCGCAGATCCCCGCTCCCCTCCCCCA, which binding signal (log2 normalized intensity) is on record?
The binding signal (log2 normalized intensity) was 6.43.

With TGGCAGAATCAAGGCAAGCCTTATCACTGT as the sequence, how does the binding signal (log2 normalized intensity) read?
Its binding signal (log2 normalized intensity) is -1.27.

With GAGGGGGTTAAAGGTTATTTGCTCACCAGT as the sequence, how does the binding signal (log2 normalized intensity) read?
The binding signal (log2 normalized intensity) was 4.45.

How did the binding signal (log2 normalized intensity) turn out when TCTCAGCCTGGCTAAAACCCTGGCCACTCC was run?
Its binding signal (log2 normalized intensity) is -1.3.

For GAAGCGAGGCCTCATTGGCCAGTATCCGCC, which binding signal (log2 normalized intensity) is on record?
Its binding signal (log2 normalized intensity) is -1.23.

For CTCCACTATTGTCCTATGACCCTGCCAAAT, which binding signal (log2 normalized intensity) is on record?
The binding signal (log2 normalized intensity) was 2.99.

With GCTGAGCAGCAATCAGCTCCTCAACCAAGG as the sequence, how does the binding signal (log2 normalized intensity) read?
Its binding signal (log2 normalized intensity) is -1.2.

CTTCTCTGTTAACCCTTTGCAGCCCCTGTC was tested. Which binding signal (log2 normalized intensity) did it give?
The binding signal (log2 normalized intensity) was 3.36.

With TCAGCACACCCCACGGAGCACATTCCATGC as the sequence, how does the binding signal (log2 normalized intensity) read?
Its binding signal (log2 normalized intensity) is 1.66.

For TATTCAGGAAGTCGCTTGCCAGTATGCCAC, which binding signal (log2 normalized intensity) is on record?
Its binding signal (log2 normalized intensity) is -1.27.

For GATGTAGCTGCAAAGATAAGGATGCCTTTT, which binding signal (log2 normalized intensity) is on record?
Its binding signal (log2 normalized intensity) is 1.43.

How did the binding signal (log2 normalized intensity) turn out when ATCTAATGCCCCAAATGACGCTTTAAGTAG was run?
The binding signal (log2 normalized intensity) was 1.19.

GGGACTTCGGTCTTTTTTCTGAAGACCTTC was tested. Which binding signal (log2 normalized intensity) did it give?
Its binding signal (log2 normalized intensity) is 1.97.

CGCATTTCCAAAAGAAGAATGTGGCCATTT was tested. Which binding signal (log2 normalized intensity) did it give?
The binding signal (log2 normalized intensity) was 0.762.

With AAGTTCTTTTGTGTGTTTACATAACCTGCC as the sequence, how does the binding signal (log2 normalized intensity) read?
Its binding signal (log2 normalized intensity) is 1.53.

Which binding signal (log2 normalized intensity) does the source give for GAAGACTTGGGGGAGGAGGGCAACCTTTGA here?
The binding signal (log2 normalized intensity) was 5.29.

For AATAACCACAAGGGGGGAGCACCTCCCAAC, which binding signal (log2 normalized intensity) is on record?
The binding signal (log2 normalized intensity) was -1.33.

How did the binding signal (log2 normalized intensity) turn out when TTTCAAAGGTCAACATACAGAGGCTCTGAG was run?
Its binding signal (log2 normalized intensity) is 2.64.

Which binding signal (log2 normalized intensity) does the source give for TGTCAGCCCAAGATAACCTCCCCTCTGACC here?
The binding signal (log2 normalized intensity) was 3.67.

With GGGTGGACTTTGGCTTTTCCAAAGGATCCC as the sequence, how does the binding signal (log2 normalized intensity) read?
Its binding signal (log2 normalized intensity) is 4.84.

Which binding signal (log2 normalized intensity) does the source give for CAAGAAAGACCCAAGGCGTATGAAGCTTTG here?
The binding signal (log2 normalized intensity) was -1.28.

For ATGTTAATGATTACTAGAGATGTCCTGAAA, which binding signal (log2 normalized intensity) is on record?
The binding signal (log2 normalized intensity) was -0.181.

For AATAGATCTGGTCTTACTGATGGGCAAAGT, which binding signal (log2 normalized intensity) is on record?
The binding signal (log2 normalized intensity) was 2.24.

For ATAGGCGAGGACGCAGTCCCGCGTGGCCTT, which binding signal (log2 normalized intensity) is on record?
Its binding signal (log2 normalized intensity) is -1.23.

Which binding signal (log2 normalized intensity) does the source give for TTAAAAGCCCAACACGGGCGAAAAAGACGC here?
The binding signal (log2 normalized intensity) was -1.27.

With GGGCCCCTTCCTGGGGGAGTTTCCTGCCTG as the sequence, how does the binding signal (log2 normalized intensity) read?
The binding signal (log2 normalized intensity) was -1.34.

AACATTCTATTCTATCTGTATTCTGAAGCC was tested. Which binding signal (log2 normalized intensity) did it give?
Its binding signal (log2 normalized intensity) is 0.295.

With ATGCAAAGCCCTGGCTGACCTTTAGCCTGG as the sequence, how does the binding signal (log2 normalized intensity) read?
The binding signal (log2 normalized intensity) was 7.69.

Which binding signal (log2 normalized intensity) does the source give for AATGAGCCTCCTGAAGATCCCCTGTTGTGC here?
Its binding signal (log2 normalized intensity) is 1.65.

TGCAGGGATGGACTTTAATCTCCAAGTAAC was tested. Which binding signal (log2 normalized intensity) did it give?
Its binding signal (log2 normalized intensity) is 5.47.

How did the binding signal (log2 normalized intensity) turn out when ACGGGTAAATCCGGTTTGGGGACTTCTCCC was run?
The binding signal (log2 normalized intensity) was -1.01.

AGGGAGGGGAGAGGGGGTTAAAGGTTATTT was tested. Which binding signal (log2 normalized intensity) did it give?
The binding signal (log2 normalized intensity) was 5.28.

How did the binding signal (log2 normalized intensity) turn out when CTGGGGTTAGCCAAACAAATGGAGAAGGTC was run?
The binding signal (log2 normalized intensity) was 0.534.

How did the binding signal (log2 normalized intensity) turn out when TTGGCCTGTTTGCTGAAGGCCATGCATGGT was run?
Its binding signal (log2 normalized intensity) is 1.14.

How did the binding signal (log2 normalized intensity) turn out when CGGGGGCAAGGGTCAGAGTAAAGCTCCAGT was run?
Its binding signal (log2 normalized intensity) is 4.65.

How did the binding signal (log2 normalized intensity) turn out when AATGAAAGGTTAACCTGCTGGTTTACAACA was run?
The binding signal (log2 normalized intensity) was -1.11.

— article PMC10726135
